This is one part of the list. Many values rest on one well or one pass, so single values are uncertain.
Key:
Experiment in all cases: cell count relative to DMSO control; melanoma cells; higher = more viable cells
Details in all cases: library dose: standard library concentration; 72 h
G361 = system: G361
IPC-298 = system: IPC-298
IST-MEL1 = system: IST-MEL1
LB2518-MEL = system: LB2518-MEL
LOXIMVI = system: LOXIMVI
MEL-HO = system: MEL-HO
MZ2-MEL = system: MZ2-MEL
MeWo = system: MeWo
RPMI7951 = system: RPMI7951
RVH-421 = system: RVH-421
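Further: cells treated in 1,536-well plates, then fixed and DAPI-stained, with nuclei counted from automated high-throughput microscope images.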

Compound | cell count (G361) | cell count (IPC-298) | cell count (IST-MEL1) | cell count (LB2518-MEL) | cell count (LOXIMVI) | cell count (MEL-HO) | cell count (MZ2-MEL) | cell count (MeWo) | cell count (RPMI7951) | cell count (RVH-421)
C[C@]12O[C@H](C[C@]1(O)CO)n1c3ccccc3c3c4c(c5c6ccccc6n2c5c31)CNC4=O [Lestaurtinib] + COc1ccc(COc2ccc(Cc3cnc(N)nc3N)cc2OC)cc1 [GW2580] (first compound 0.02 µM, partner dose 5 µM) | 84.3% | 84.8% | 122% | 86.4% | 71.9% | 94.9% | 96.2% | 90% | 111% | 105%
C[C@]12O[C@H](C[C@]1(O)CO)n1c3ccccc3c3c4c(c5c6ccccc6n2c5c31)CNC4=O [Lestaurtinib] + O=S(=O)(c1ccccc1)N(CC(F)(F)F)c1ccc(C(O)(C(F)(F)F)C(F)(F)F)cc1 [T0901317] (first compound 0.02 µM, partner dose 7 µM) | 69.7% | 78.1% | 104% | 88.4% | 84.2% | 80.5% | 104% | 79.2% | 89.2% | 99.7%
C[C@]12O[C@H](C[C@]1(O)CO)n1c3ccccc3c3c4c(c5c6ccccc6n2c5c31)CNC4=O [Lestaurtinib] + COC(=O)c1sccc1S(=O)(=O)Nc1ccc(Nc2ccccc2)cc1OC [GSK0660] (first compound 0.02 µM, partner dose 5 µM) | 75.4% | 69.8% | 93.6% | 73.6% | 91.2% | 74.4% | 100% | 84.2% | 87.1% | 96%
Cn1cc(C2=C(c3cn(C4CCN(Cc5ccccn5)CC4)c4ccccc34)C(=O)NC2=O)c2ccccc21 [Enzastaurin] + C[C@]1(O)C[C@@H](c2nc(-c3ccc4ccc(-c5ccccc5)nc4c3)c3c(N)nccn32)C1 [OSI906] (first compound 4 µM, partner dose 2 µM) | 71% | 97.7% | 71.7% | 69.4% | 69.6% | 88.6% | 112% | 91.3% | 51% | 94.2%
C[C@]12O[C@H](C[C@]1(O)CO)n1c3ccccc3c3c4c(c5c6ccccc6n2c5c31)CNC4=O [Lestaurtinib] + C#Cc1cccc(Nc2ncnc3cc(OCCOC)c(OCCOC)cc23)c1 [erlotinib] (first compound 0.02 µM, partner dose 4 µM) | 57.3% | 46.7% | 87.1% | 46.1% | 92% | 72.1% | 59.9% | 66% | 59.7% | 65.6%
C[As](C)SC[C@H](NC(=O)CC[C@H](N)C(=O)O)C(=O)NCC(=O)O [Darinaparsin] + O=C(Nc1ccccc1)c1cc([N+](=O)[O-])ccc1Cl [GW9662] (first compound 2 µM, partner dose 10 µM) | 59.8% | 91.4% | 1.55% | 74.8% | 77.5% | 78% | 86.4% | 58.9% | 95.2% | 73.5%
C[As](C)SC[C@H](NC(=O)CC[C@H](N)C(=O)O)C(=O)NCC(=O)O [Darinaparsin] + CCCCCCCCCCCC1=C(O)C(=O)C=C(O)C1=O [Embelin] (first compound 2 µM, partner dose 6 µM) | 66.6% | 71% | 59.9% | 108% | 88.2% | 75.2% | 95.2% | 110% | 82.2% | 64.1%
C[C@]12O[C@H](C[C@]1(O)CO)n1c3ccccc3c3c4c(c5c6ccccc6n2c5c31)CNC4=O [Lestaurtinib] + C=CCn1c(=O)c2cnc(Nc3ccc(N4CCN(C)CC4)cc3)nc2n1-c1cccc(C(C)(C)O)n1 [MK1775] (first compound 0.02 µM, partner dose 0.1 µM) | 73.1% | 60.2% | 93.8% | 45.7% | 103% | 82.4% | 118% | 56.2% | 45.8% | 73.6%
C[As](C)SC[C@H](NC(=O)CC[C@H](N)C(=O)O)C(=O)NCC(=O)O [Darinaparsin] + COc1cc(Nc2ncc(F)c(Nc3ccc4c(n3)NC(=O)C(C)(C)O4)n2)cc(OC)c1OC [Tamatinib] (first compound 2 µM, partner dose 2 µM) | 72.5% | 93.5% | 46.6% | 87.6% | 42.3% | 75.7% | 78.7% | 68.7% | 44.4% | 93.4%
N.N.[Cl][Pt][Cl] [cisplatin] + O=C(Nc1cccc(Cl)c1)Nc1ncc(CCNc2ncnc3ccsc23)s1 [SNS314] (first compound 8 µM, partner dose 0.004 µM) | 76.6% | 105% | 73.8% | 88.3% | 75.4% | 90% | 110% | 91.2% | 90.2% | 97.4%
C[C@]12O[C@H](C[C@]1(O)CO)n1c3ccccc3c3c4c(c5c6ccccc6n2c5c31)CNC4=O [Lestaurtinib] + CCCS(=O)(=O)Nc1ccc(F)c(C(=O)c2c[nH]c3ncc(Cl)cc23)c1F [PLX4720] (first compound 0.02 µM, partner dose 0.4 µM) | 63% | 55.1% | 86.4% | 68.4% | 124% | 77.1% | 71.4% | 83.5% | 97.9% | 59%
Cn1cc(C2=C(c3cn(C4CCN(Cc5ccccn5)CC4)c4ccccc34)C(=O)NC2=O)c2ccccc21 [Enzastaurin] + C[C@]12O[C@H](C[C@]1(O)CO)n1c3ccccc3c3c4c(c5c6ccccc6n2c5c31)CNC4=O [Lestaurtinib] (first compound 4 µM, partner dose 0.02 µM) | 66.3% | 74.3% | 79.3% | 66.2% | 128% | 74.9% | 90.4% | 99.2% | 53.9% | 34.3%
C[C@]12O[C@H](C[C@]1(O)CO)n1c3ccccc3c3c4c(c5c6ccccc6n2c5c31)CNC4=O [Lestaurtinib] + Cn1cc(/C=C2\C(=O)Nc3cccnc32)c2ccccc21 [GW441756] (first compound 0.02 µM, partner dose 2 µM) | 82.4% | 52.9% | 96.2% | 55.8% | 83.2% | 73.5% | 89.6% | 78.6% | 75.9% | 76.4%
Cn1cc(C2=C(c3cn(C4CCN(Cc5ccccn5)CC4)c4ccccc34)C(=O)NC2=O)c2ccccc21 [Enzastaurin] + O=C(O)c1ccc2c(c1)nc(Nc1cccc(Cl)c1)c1ccncc12 [CX4945] (first compound 4 µM, partner dose 2 µM) | 63.2% | 72% | 80.6% | 64.8% | 48.6% | 67.4% | 77.8% | 87.7% | 44.7% | 50.9%
Cn1cc(C2=C(c3cn(C4CCN(Cc5ccccn5)CC4)c4ccccc34)C(=O)NC2=O)c2ccccc21 [Enzastaurin] + Nc1ncn([C@H]2C[C@H](O)[C@@H](CO)O2)c(=O)n1 [decitabine] (first compound 4 µM, partner dose 0.5 µM) | 81.6% | 74.4% | 68.4% | 52.9% | 71.2% | 89.9% | 94.5% | 99.2% | 33.3% | 25.3%
N.N.[Cl][Pt][Cl] [cisplatin] + O=C(Nc1ccccc1)c1cc([N+](=O)[O-])ccc1Cl [GW9662] (first compound 8 µM, partner dose 10 µM) | 91.9% | 96.8% | 86% | 70.1% | 52.7% | 82.4% | 82.8% | 74.6% | 78.9% | 23.1%
Cn1cc(C2=C(c3cn(C4CCN(Cc5ccccn5)CC4)c4ccccc34)C(=O)NC2=O)c2ccccc21 [Enzastaurin] + C=C(c1ccc(C(=O)O)cc1)c1cc2c(cc1C)C(C)(C)CCC2(C)C [Bexarotene] (first compound 4 µM, partner dose 10 µM) | 62.6% | 70.9% | 75% | 92% | 69.8% | 75.3% | 96.6% | 68.8% | 70.6% | 55.3%
Cn1cc(C2=C(c3cn(C4CCN(Cc5ccccn5)CC4)c4ccccc34)C(=O)NC2=O)c2ccccc21 [Enzastaurin] + CCN(CC)CCCCNc1ncc2cc(-c3cc(OC)cc(OC)c3)c(NC(=O)NC(C)(C)C)nc2n1 [PD173074] (first compound 4 µM, partner dose 0.5 µM) | 74.3% | 101% | 76.5% | 82.8% | 108% | 93.9% | 100% | 89.5% | 42.2% | 53.9%
Cn1cc(C2=C(c3cn(C4CCN(Cc5ccccn5)CC4)c4ccccc34)C(=O)NC2=O)c2ccccc21 [Enzastaurin] + C=CCn1c(=O)c2cnc(Nc3ccc(N4CCN(C)CC4)cc3)nc2n1-c1cccc(C(C)(C)O)n1 [MK1775] (first compound 4 µM, partner dose 0.1 µM) | 64.8% | 88.1% | 101% | 66.3% | 97.6% | 109% | 124% | 80.9% | 30.1% | 60%
Cn1cc(C2=C(c3cn(C4CCN(Cc5ccccn5)CC4)c4ccccc34)C(=O)NC2=O)c2ccccc21 [Enzastaurin] + c1cc(-c2cnn3cc(-c4ccc(OCCN5CCCCC5)cc4)cnc23)ccn1 [Dorsomorphin] (first compound 4 µM, partner dose 2 µM) | 59.7% | 97% | 70.7% | 26.3% | 117% | 86.1% | 85.8% | 74.3% | 35.2% | 69.8%
C[As](C)SC[C@H](NC(=O)CC[C@H](N)C(=O)O)C(=O)NCC(=O)O [Darinaparsin] + COc1ccc2c(c1)CCC1C2CCC2(C)C(NCCCCCCN3C(=O)C=CC3=O)CCC12 [U73122] (first compound 2 µM, partner dose 2 µM) | 86.3% | 101% | 98.7% | 141% | 120% | 99.2% | 77.1% | 82.8% | 120% | 98.5%
Cn1cc(C2=C(c3cn(C4CCN(Cc5ccccn5)CC4)c4ccccc34)C(=O)NC2=O)c2ccccc21 [Enzastaurin] + Nc1ccn([C@@H]2O[C@H](CO)[C@@H](O)C2(F)F)c(=O)n1 [gemcitabine] (first compound 4 µM, partner dose 0.002 µM) | 78.6% | 59.1% | 63.1% | 72.2% | 86.1% | 79.5% | 85.8% | 62.3% | 69.2% | 134%
